Experimental data published in the supplement of paper PMC11417369.
The list shows a part of the results.

test system: PfAP2-HC AP2 domain (GST-tagged); test: gcPBM binding intensity (ln(normalized median fluorescence intensity)); higher = stronger DNA binding
Summary of the method: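 The highest Masliner-normalised natural-log median intensity across replicate spots of either probe orientation is reported as binding intensity. GST-tagged P. falciparum DNA-binding domains expressed in E. coli were applied for 1 h to an Agilent 4 × 180k array of primer-extended double-stranded 36-bp intergenic genomic probes plus negative controls, and bound protein was detected with Alexa488 anti-GST antibody and scanned at 488 nm.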

Sequence	gcPBM binding intensity (ln)
TTATAAAAATATTACGCACACACAAACTTATTCATT [CACACA_site1970]	10.2
TATATATATTAATTTATTTATTTGTTTATTTATTTA [CACACA_negctrl_site185]	9.69
ATATATTTATATTATACACACAAAAATATTTTGTAT [CACACA_site6262]	9.87
AAGAATTATAGAAACACACATACATACAGACATACA [CACACA_site1943]	10.1
TAATTACCATATGGTACACACATATATATCTGTATA [CACACA_site5849]	9.96
AATAATATCTGAAAATGTACATTTTATTATAAACAT [XGTACX_site8441]	9.8
AAGAAGAGTTATTGTAGTACATTTTTAAATGTAATA [XGTACX_site7664]	9.69
AGTTAAATGAATCAATACATAAATATGTATATATAT [TGCATGCA_negctrl_site539]	9.61
TTTTTTTAATAAATTTATAACAATATGATAGGTGAC [CACACA_negctrl_site1783]	9.49
TGAATCAATTGTTGCTGTACATAAGGTATACAATAA [XGTACX_site5127]	9.56
TATTTGGGTATTTTTACACACATTAATATATATATA [CACACA_site9114]	9.72
AAAGATAATAATATGCGTACATAAAAATATATGATA [XGTACX_site6884]	9.77
ATAATGGAAAAAAAATATAATAATACGAAATAGGAA [TGCATGCA_negctrl_site64]	9.96
TTATAAATTTTTAATAGTACATAAAATTAAAGGTAA [XGTACX_site760]	9.19
ATGTGATAATTTAGGAGTACTGTCATAAGCATTTCT [XGTACX_site3091]	9.62
TCATAAAAAGGAATCTTTAAGATATTTTATAAGCTC [XGTACX_negctrl_site18]	9.4
TTTCTTTATTTATAATAATTTTTTATTAAAAATAGA [CACACA_negctrl_site1610]	9.18
AGTGCATAATATTTATGTACGTATCACATATATTTT [XGTACX_site5166]	9.64
AATAAATGTCTGTTAATGCACACGATATGTCTATAT [CACACA_site2351]	9.94
AAAAATAAAATAAAATAAAATAAAAATAAAGAAAAA [CACACA_negctrl_site808]	9.82
ACAAATAAAAAAATTACACACATATATAATATATAT [CACACA_site1361]	9.87
AGTAGTCTGGAGAAAAGTACACAGTATCTGGTAACA [XGTACX_site2034]	9.61
TTAATTCTATACATAAATTATGTTTACATAAAGAAT [GTGCAC_negctrl_site246]	9.47
ATTTGACACGTATATGCACACACCCGTAAGTGTCCA [CACACA_site8891]	9.98
